Data reported in the supplement of paper PMC9446081.
Among all 39,000 compounds or so, about 220 (0.56%) showed activity. The list shows a part of the results.

Tested on: Escherichia coli K-12 BW25113
Assay: relative growth (OD600 normalised to plate interquartile mean) (fraction); higher = less growth inhibition, active = 0.2 or less
Conditions: 50 µM; LB; incubation time: overnight (16-24 h)
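Also: static incubation at 37 °C against the wild-type strain, values averaged over two biological replicates.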

Compound | relative growth
COCCOC(=O)N1C(=O)[C@@]2(c3cc(C#CCNC(N)=O)ccc31)[C@H](c1ccccc1OCCO)N1[C@H](c3ccccc3)[C@H](c3ccccc3)OC(=O)[C@H]1[C@@H]2C(=O)N1CCCCCCC1 | inactive: 0.996
CN1CCN(Cc2ccc(NC(=O)Nc3ccc(Oc4cc(NC(=O)C5CC5)ncn4)cc3)cc2C(F)(F)F)CC1 | inactive: 0.903
O=C(O)[C@H](O)Cc1ccccc1 | inactive: 0.999
c1csc(-c2nc3ccc4ccccc4c3c3c2CCC3)c1 | inactive: 0.984
C[C@@H]1CN([C@H](C)CO)C(=O)c2cc(NS(=O)(=O)c3cccs3)ccc2O[C@H]1CN(C)S(C)(=O)=O | inactive: 1.01
C[C@H](CO)N1C[C@H](C)[C@@H](CN(C)S(=O)(=O)c2ccccc2)OCCCC[C@H](C)Oc2ccc(NC(=O)C3CCCCC3)cc2C1=O | inactive: 1.03
Cc1ccc(S(=O)(=O)N(C)C[C@@H]2Oc3ccc(NS(=O)(=O)c4cn(C)cn4)cc3CC(=O)N([C@@H](C)CO)C[C@@H]2C)cc1 | inactive: 0.983
C[C@@H]1CN([C@H](C)CO)C(=O)c2cc(NS(=O)(=O)c3cccs3)ccc2O[C@@H](C)CCCCO[C@@H]1CN(C)S(=O)(=O)c1cn(C)cn1 | inactive: 1
COc1cccc(S(=O)(=O)N(C)C[C@@H]2Oc3c(NC(=O)Nc4cccc5ccccc45)cccc3C(=O)N([C@@H](C)CO)C[C@H]2C)c1 | inactive: 0.939
C=c1[nH]/c(=C/c2cccnc2)c(=O)o1 | inactive: 1.01
COc1ccccc1CN(C)C[C@@H]1OCc2ccccc2-c2c(n(C)c3ccccc23)C(=O)N([C@@H](C)CO)C[C@H]1C | inactive: 0.975
C[C@@H]1CCCCO[C@H](CN(C)S(=O)(=O)c2ccccc2)[C@@H](C)CN([C@H](C)CO)C(=O)c2cc(NC(=O)CCCCCC(=O)Nc3ccccc3N)ccc2O1 | inactive: 1.02
COc1ccc(NC(=O)N(C)C[C@H]2OCCCC[C@H](C)Oc3ccc(NC(=O)Nc4ccc(F)cc4)cc3C(=O)N([C@H](C)CO)C[C@@H]2C)cc1 | inactive: 1.03
C[C@@H]1CN([C@H](C)CO)C(=O)c2cc(NS(=O)(=O)c3cn(C)cn3)ccc2O[C@@H](C)CCCCO[C@@H]1CN(C)S(=O)(=O)c1ccc(F)cc1 | inactive: 1
C[C@@H]1CN([C@H](C)CO)C(=O)c2cccc(NS(=O)(=O)c3cn(C)cn3)c2O[C@@H]1CN(C)S(=O)(=O)c1cn(C)cn1 | inactive: 0.982
C[C@@H]1CN([C@@H](C)CO)C(=O)c2cc(NS(=O)(=O)c3cccs3)ccc2O[C@@H](C)CCCCO[C@H]1CN(C)C(=O)CCC(F)(F)F | inactive: 1.04
COc1ccc(NC(=O)Nc2ccc3c(c2)C(=O)N([C@@H](C)CO)C[C@H](C)[C@H](CN(C)S(C)(=O)=O)O3)cc1 | inactive: 0.991
C[C@H](CO)N1C[C@H](C)[C@H](CN(C)S(=O)(=O)c2cccs2)Oc2c(NC(=O)Nc3cccc4ccccc34)cccc2C1=O | inactive: 1.01
Cc1ccc(S(=O)(=O)N(C)C[C@@H]2Oc3cc(C#Cc4ccccc4)ccc3S(=O)(=O)N([C@H](C)CO)C[C@H]2C)cc1 | inactive: 1.04
CCN(CC)S(=O)(=O)[C@H]1CCS(=O)(=O)C1 | inactive: 0.989
C[C@@H]1CN([C@H](C)CO)C(=O)Cc2cc(NS(=O)(=O)c3ccc(F)cc3)ccc2O[C@@H]1CN(C)Cc1ccc(Oc2ccccc2)cc1 | inactive: 0.986

Compound | relative growth
COc1ccc2c3c([nH]c2c1)[C@H](CO)N(C[C@]13CCN(CC1)CC1CCCC1)C(=O)Nc1cccc(c1)F | inactive: 0.97
CC(=O)N[C@H]1C(=O)Nc2ccc(F)cc21 | inactive: 1.02
Cc1noc(C)c1NC(=O)Nc1ccc2c(c1)C(=O)N([C@H](C)CO)C[C@@H](C)[C@@H](CN(C)S(=O)(=O)c1cccs1)OCCCC[C@H](C)O2 | inactive: 1
Cc1noc(C)c1NC(=O)N(C)C[C@@H]1Oc2c(NC(=O)C3CC3)cccc2C(=O)N([C@H](C)CO)C[C@@H]1C | inactive: 0.955
C[C@@H]1CN([C@@H](C)CO)S(=O)(=O)c2ccc(C#CCN(C)C)cc2O[C@@H]1CN(C)Cc1ccccc1F | inactive: 1.03
CC(C)NC(=O)N(C)C[C@@H]1Oc2ccc(NC(=O)Cc3ccccc3)cc2CC(=O)N([C@@H](C)CO)C[C@@H]1C | inactive: 1.01
C[C@H](CO)N1C[C@H](C)[C@H](CN(C)S(=O)(=O)c2ccc(F)cc2)Oc2ccc(NC(=O)Cn3cnnn3)cc2C1=O | inactive: 0.995
C[C@H]1CN([C@@H](C)CO)S(=O)(=O)c2ccc(C#CCN(C)C)cc2O[C@H]1CN(C)C(=O)C1CCCCC1 | inactive: 1.01
CCCC#Cc1cnc2c(c1)C(=O)N([C@H](C)CO)C[C@H](C)[C@H](CN(C)S(=O)(=O)c1cn(C)cn1)O2 | inactive: 1.01
COc1ccc(S(=O)(=O)N[C@@H]2C=C[C@H](CC(=O)N3CCN(c4ccccc4)CC3)O[C@H]2CO)cc1 | inactive: 1.01
COc1ccc(S(=O)(=O)Nc2ccc3c(c2)C(=O)N([C@H](C)CO)C[C@H](C)[C@H](CN(C)C(=O)CCC(F)(F)F)OCCCC[C@H](C)O3)cc1 | inactive: 0.965
C[C@@H]1CCCCO[C@H](CN(C)S(=O)(=O)c2ccc(F)cc2)[C@H](C)CN([C@@H](C)CO)C(=O)c2cc(NC(=O)Nc3ccc4c(c3)OCO4)ccc2O1 | inactive: 1
Cc1ccc(S(=O)(=O)N2C[C@H](O)COC[C@@H]3O[C@H](CC(=O)N[C@@H]4CCN(Cc5ccccc5)C4)CC[C@H]32)cc1 | inactive: 1.01
O=C(C[C@H]1C[C@H]2c3cc(NC(=O)Cc4ccncc4)ccc3O[C@H]2[C@@H](CO)O1)NCc1ccc2c(c1)OCO2 | inactive: 0.992
COc1ccc2c3c(n(c2c1)C)[C@H](CO)N(C[C@]13CN(C1)C(=O)c1ccncc1)C(=O)C1CCCCC1 | inactive: 1.01
C[C@@H]1CCCCO[C@@H](CN(C)C(=O)Nc2cccc3ccccc23)[C@@H](C)CN([C@H](C)CO)C(=O)c2cc(NC(=O)c3ccccc3)ccc2O1 | inactive: 1.01
COc1ccc(-c2cnc3c(c2)C(=O)N([C@H](C)CO)C[C@@H](C)[C@@H](CN(C)S(=O)(=O)c2ccc(OC)cc2)O3)cc1 | inactive: 1.01
Cc1cccnc1[C@H](c1ccc(F)cc1)N(C)C(=O)C1CCN(CCOc2ccc(Cl)cc2Cl)CC1 | inactive: 0.951
COc1ccc(NC(=O)N(C)C[C@@H]2Oc3ccc(NC(=O)Cn4cnnn4)cc3C(=O)N([C@@H](C)CO)C[C@H]2C)cc1 | inactive: 1.01
Cl.NCCCC(N)C(=O)O (stereo unspecified) | inactive: 0.979
C[C@H](CO)N1C[C@H](C)[C@H](CN(C)C(=O)Nc2ccc(F)cc2)Oc2c(NC(=O)c3ccc(-c4nccs4)cc3)cccc2C1=O | inactive: 1

Compound | relative growth
Cc1noc(C)c1NC(=O)N(C)C[C@@H]1Oc2ccc(NS(=O)(=O)c3ccccc3)cc2CC(=O)N([C@H](C)CO)C[C@@H]1C | inactive: 0.856
C[C@@H]1CN([C@@H](C)CO)C(=O)Cc2cc(NC(=O)c3ccncc3)ccc2O[C@@H]1CN(C)S(=O)(=O)c1ccccc1 | inactive: 1.01
Cc1noc(C)c1S(=O)(=O)Nc1ccc2c(c1)C(=O)N([C@@H](C)CO)C[C@@H](C)[C@@H](CN(C)Cc1ccccc1)OCCCC[C@H](C)O2 | inactive: 0.985
COc1ccc(S(=O)(=O)N(C)C[C@@H]2OCc3cn(nn3)CCCC(=O)N([C@@H](C)CO)C[C@@H]2C)cc1 | inactive: 1
CCCC#Cc1ccc2c(c1)O[C@H](CN(C)C(=O)c1cnccn1)[C@H](C)CN([C@@H](C)CO)S2(=O)=O | inactive: 0.99
Nc1ccc(-c2nn[nH]n2)cc1F | inactive: 1.02
CCOC(=O)N(C)C[C@@H]1OCc2cn(nn2)CCCC(=O)N([C@@H](C)CO)C[C@@H]1C | inactive: 1.01
C[C@@H]1CN([C@@H](C)CO)C(=O)Cc2cc(NS(C)(=O)=O)ccc2O[C@@H]1CN(C)S(=O)(=O)c1cn(C)cn1 | inactive: 0.987
CC(C)N1CC=C[C@@]23O[C@@H]4/C=C\CCCOC(=O)[C@@H]4[C@H]2C(=O)N(CCCO)[C@@H]3C1=O | inactive: 0.971
Cc1noc(C)c1NC(=O)Nc1ccc2c(c1)C(=O)N([C@H](C)CO)C[C@H](C)[C@@H](CN(C)S(=O)(=O)c1ccccc1)O2 | inactive: 0.999
CC(=O)Nc1ccc(S(=O)(=O)CCO)cc1 | inactive: 1
CN1C(=O)c2cc(NC(=O)c3cnccn3)ccc2OC[C@H]2O[C@@H](CC(=O)N[C@H]3CCN(Cc4ccccc4)C3)CC[C@H]21 | inactive: 0.983
C[C@@H]1CN([C@H](C)CO)C(=O)c2cc(NC(=O)CCC(F)(F)F)ccc2O[C@@H](C)CCCCO[C@@H]1CN(C)S(=O)(=O)c1ccc(F)cc1 | inactive: 0.982
Cc1ccc(S(=O)(=O)Nc2ccc3c(c2)CC(=O)N([C@@H](C)CO)C[C@H](C)[C@H](CN(C)S(=O)(=O)c2ccccc2)O3)cc1 | inactive: 0.999
C/C=C/c1ccc2c(c1)O[C@H](CN(C)S(=O)(=O)c1ccccc1)[C@H](C)CN([C@@H](C)CO)S2(=O)=O | inactive: 1.04
Cc1noc(C)c1S(=O)(=O)Nc1ccc2c(c1)C(=O)N([C@@H](C)CO)C[C@@H](C)[C@@H](CN(C)S(=O)(=O)c1cn(C)cn1)O2 | inactive: 1.02
NCC[C@H]1CC[C@@H](NC(=O)C2CCCCC2)[C@@H](CO)O1 | inactive: 0.986
Nc1cnccn1 | inactive: 1.01
C[C@@H]1CN([C@@H](C)CO)C(=O)c2cc(C#CCN(C)C)cnc2O[C@H]1CN(C)S(C)(=O)=O | inactive: 0.982
